# Among all 2,800 compounds or so, fewer than 10 were called active. Calls come from the whole dose curve; as a rule, active = well fitted curve in the direction sought with a large enough effect; inconclusive = small, poorly fitted or top-dose-only effect, or another doubt; inactive = no such curve, though single readings can be large or run the other way. Some of the results follow.
# Target: Metallo-beta-lactamase type 2 (Klebsiella pneumoniae) (UniProt C7C422)
# Test: qHTS to identify inhibitors of the New Delhi Metallo-beta-lactamase (NDM): Meropenem screen against the machine-based learning selections. Note: % of control where 0% means no effect.
# Conditions: Purified NDM-1, meropenem hydrolysis, absorbance 300 nm; at 38.4 µM (top of the series) unless noted
# Outline: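 Hydrolysis by 2 nM NDM-1 was followed by absorbance after >30 min compound preincubation in HEPES pH 7.0 buffer with 1 uM Zn2SO4. For nitrocefin (16.7 uM, 15 min, 485 nm) and meropenem (50 uM, 30 min, 300 nm), each substrate ran on separate plates.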
# Sequence of UniProt C7C422 (C7C422 whole entry, looked up): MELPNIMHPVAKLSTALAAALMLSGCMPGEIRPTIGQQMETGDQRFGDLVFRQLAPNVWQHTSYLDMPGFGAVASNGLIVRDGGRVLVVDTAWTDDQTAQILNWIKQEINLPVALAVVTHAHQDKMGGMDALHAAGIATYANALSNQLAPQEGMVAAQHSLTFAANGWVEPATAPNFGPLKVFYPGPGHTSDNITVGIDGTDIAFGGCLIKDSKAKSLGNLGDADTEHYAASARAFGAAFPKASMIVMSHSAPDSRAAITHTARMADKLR
row,Structure (SMILES),"activity change, negative = inhibition"
1,CC[C@H]1CN(Cc2ccc(OC)cc2O)CC[C@H]1CC(=O)N(C)CC#N,inactive: 0.987% [at 57.5 µM]
2,CNCCN1C(=O)CC[C@H]2CN(C(=O)c3ccc(Cl)cn3)CC[C@H]21,inactive: 54.6%
3,CSCC(=O)Nc1ccc2n(c1=O)C[C@H]1C[C@@H]2CN(C(=O)c2ccc(-c3ccccc3)cc2)C1,inactive: -0.0534%
4,CN1CCCN(C(=O)C2(Oc3ccc4ncccc4c3)CCNCC2)CC1,inactive: 40.1%
5,O=C(c1ccccc1Cl)N1CCC2(CC1)Cc1ccccc1NC2=O,inactive: 0.724%
6,NC(=O)Cc1c[nH]c2ncc(-c3cccc(F)c3)cc12,inactive: 7.55% [at 76.7 µM]
7,C[C@H]1[C@@H]2[C@H]3OC(=O)[C@@H](C)[C@@H]3CC[C@@]2(C)CC[C@@H]1NC(=O)Cc1ccccc1,inactive: 1.19% [at 57.5 µM]
8,O=c1c2nc(NCc3cccs3)ccc2ncn1Cc1ccccc1,inactive: 6.33% [at 57.5 µM]
9,NC(=O)c1cccc(-c2cc(-c3cccnc3)c3cncn3c2)c1,inactive: 17% [at 57.5 µM]
10,CCOCCN1C(=O)COC[C@@H]1[C@H](O)c1ccc(NC(=O)Nc2ccccc2)cc1,inactive: 0.857% [at 57.5 µM]
11,NC(=O)CN1C(=O)[C@@H]2CN(C(=O)CC3(CC(=O)O)CCCC3)CCN2C1=O,inactive: -1.04% [at 57.5 µM]
12,Cc1ccc2c(c1)C(C[C@H]1CN(C(=O)NC(C)C)CC[C@H]1CC(=O)O)=NCC2,inactive: 4.46% [at 57.5 µM]
13,CC(C)Cc1cc(C(=O)N2C[C@H](C3CC3)[C@@H](N)C2)n(C)n1,inactive: 1.75%
14,CC(C)NC(=O)CC[C@@H]1CNC(=O)[C@@H]2C[C@H](NCc3ccc(CO)o3)CN12,inactive: 37.5% [at 57.5 µM]
15,Cc1nc(N)nc(C)c1CC(=O)N1CC[C@@H](NC(=O)c2cccnc2)[C@H](O)C1,inactive: 0.116%
16,OC(c1ccccc1)c1nc(Nc2ccc(Cl)cc2F)n[nH]1 (stereo not drawn),inactive: 0.643% [at 57.5 µM]
17,CN(C)C(C(=O)N1CCN(Cc2nccn2C)CC1)c1cccc(F)c1 (stereo not drawn),inactive: -0.919%
18,COc1ccc(CN2C[C@H]3CN(Cc4cnn(C)c4)CCN3C2=O)cc1,inactive: -0.735% [at 57.5 µM]
19,COc1ccccc1C(=O)N[C@H]1[C@H](O)[C@H](O)C[C@@H]1c1ccc(N2CCOCC2)nc1,inactive: 4.99% [at 57.5 µM]
20,NC(=O)NCc1cn(C2CCN(Cc3cc4ccccc4s3)CC2)nn1,inactive: 27.6%
21,CCc1nncn1C1CCN(S(=O)(=O)c2ccc(F)cc2)CC1,inactive: -1.61%
22,CC(C)(C)c1ccc(-c2cc(C[C@H]3CNCC[C@H]3CC(=O)NCc3ccc(F)cc3)no2)cc1,inactive: -1.38%
23,OC1(CNc2cc(C(F)(F)F)nc(N3CCCC3)n2)CCCNCC1 (stereo not drawn),inactive: 67.7%
24,CC(C)=CC(=O)N1CC[C@H](NC(=O)Nc2ccc(F)cc2F)[C@H]1C(=O)N[C@@H](Cc1cccs1)C(N)=O,inactive: -1.7%
25,O=C1COc2cc(C(=O)NCC3CCOc4ccccc4C3)ccc2N1 (stereo not drawn),inactive: 6.57%
26,O=C(NC1CC(c2nnc(CO)n2C2CC2)C1)c1ccc(F)cc1Cl (stereo not drawn),inactive: 0.242%

row,Structure (SMILES),"activity change, negative = inhibition"
1,OCC1CNCCC12CCN(Cc1ccc3ccccc3c1)CC2 (stereo not drawn),inactive: 0.91%
2,Cn1cc(CN2CCOC[C@H](Oc3ccc(S(C)(=O)=O)cc3)C2)c2ccccc21,inactive: 5.48% [at 57.5 µM]
3,CC(C)c1cc(CN(C)C(=O)CN2C(=O)COc3cccnc32)on1,inactive: -0.366%
4,CC1(C(=O)NCc2ccccc2)COCc2cnc(Nc3ccccc3)nc21 (stereo not drawn),inactive: 1.53% [at 57.5 µM]
5,COc1cc2c(cc1OC)CN(C(=O)C[C@@H]1CCNC[C@@H]1Cc1cc(CN3CCCCC3)on1)CC2,inactive: 0.985%
6,Fc1ccc(-c2nnc3ccc(NC4CCC4)nn23)nc1,inactive: 10.6% [at 76.7 µM]
7,CN(C)CCN(C)CC[C@H]1CN(C(=O)c2ccc(F)cc2)CC[C@H]1CC(=O)O,inactive: 43.7% [at 57.5 µM]
8,CC(C)C[C@@H]1N[C@H](C(=O)NC(C)C)Cc2cn(Cc3ccncc3)c3cccc1c23,inactive: 3.63% [at 57.5 µM]
9,COc1ccc(CN2CC3(C2)C(=O)N(Cc2cccc(Cl)c2)C(=O)[C@@H]2C[C@@H](O)CN23)c2ccccc12,inactive: -4.6%
10,O=C(c1cccnc1)N1CC[C@H](c2nnc(Cc3ccccc3)o2)C1,inactive: -3.47% [at 57.5 µM]
11,Cc1noc2c(-c3cccc(O)c3)cc(-c3ccccc3)nc12,inactive: 2.12% [at 57.5 µM]
12,CCn1cc(CN2CCC(Oc3ccc4ccccc4c3)(C(=O)O)CC2)cn1,inactive: 5.91%
13,CCC1=C(C(=O)OC)C(c2ccccc2OC)N2C(CC(=O)N3CC(C)OC(C)C3)=CSC2=N1 (stereo not drawn),inactive: 8.79%
14,Oc1ccccc1CN1CCNc2cc(Nc3ccccc3)ncc2C1,inactive: 4.83% [at 57.5 µM]
15,COc1ccc(N2CCN(C3CCCN(C(=O)C(C)(C)N)C3)CC2)cc1 (stereo not drawn),inactive: 44.4%
16,CC(C)(O)CCc1cccc(C(=O)NCC(O)c2ccccc2Cl)c1 (stereo not drawn),inactive: -0.8%
17,CC(=O)NCC1(COc2cccnc2)C[C@@H](O)[C@@H](O)C1 (stereo partly drawn),inactive: 38.7% [at 76.7 µM]
18,CC(=O)c1ccc(NC(=O)N2C[C@@H]3C[C@H](C2)c2ccc(NC(=O)C4CCCCC4)c(=O)n2C3)cc1,inactive: 3.71%
19,CS(=O)(=O)N1C[C@H]2CCN(C(=O)c3ncccc3F)C[C@H]21,inactive: 1.01%
20,O=C(c1cn2ccccc2n1)N1C[C@@H](CO)[C@H](c2ccncc2)C1,inactive: 10.1%
21,CC(C)NC(=O)C[C@@H]1O[C@H](CNCc2cccc(Cl)c2)[C@@H](O)[C@H]1O,inactive: 61.2% [at 57.5 µM]
22,CCn1nc(CC(C)C)cc1C(=O)N1CCN(CCn2cccc2)CC1,inactive: 18.2%
23,CN1CCCC1c1nc(C2CN(C(=O)c3ccsc3)C2)no1 (stereo not drawn),inactive: 1.31%
24,O=C1[C@H]2CN(S(=O)(=O)c3ccc(F)cc3)CCN2C(=O)N1CCO,inactive: 3.06% [at 57.5 µM]
25,COc1ccccc1-c1[nH]nc2ncc(C(=O)NCCc3ccccn3)nc12,inactive: 5.94% [at 57.5 µM]
26,Cc1oc(C(O)c2cccc(O)c2)nc1C(=O)Nc1ccc2c(c1)CNC2=O (stereo not drawn),inactive: 8.63% [at 57.5 µM]

row,Structure (SMILES),"activity change, negative = inhibition"
1,COc1ccc(CN2CCNc3cc(Nc4ccccc4)ncc3C2)cc1,inactive: -2.91% [at 57.5 µM]
2,CCC(=O)N1CCC(c2nc(C3CCOCC3)no2)C1 (stereo not drawn),inactive: 0.793%
3,c1ccc(-c2cc3c(cn2)CN(Cc2ccc4[nH]ccc4c2)CCN3)cc1,inactive: 3.54% [at 57.5 µM]
4,COc1cccc(C(=O)N2CCOC[C@H](Oc3cccnc3)C2)c1,inactive: -2.14% [at 57.5 µM]
5,CCCS(=O)(=O)N1CCC(Cc2nc(-c3cccnc3)n[nH]2)C1 (stereo not drawn),inactive: -0.189%
6,COc1ccc(CC2(CO)CCNCC2)cc1,inactive: 0.626%
7,CC1(C)[C@H](Cc2cc(COc3ccccc3)on2)C[C@@H]1NC(=O)Nc1ccccc1,inactive: 3.99% [at 57.5 µM]
8,NC(=O)Cc1c[nH]c2ncc(-c3ccc(Oc4ccccc4)cc3)cc12,inactive: -0.408% [at 57.5 µM]
9,O=c1c2nc(Nc3cccc(F)c3)ccc2ncn1Cc1ccccc1,inactive: 7.45% [at 57.5 µM]
10,CCN(CC)C(=O)[C@@H]1CCC[C@@H](NC2CCOCC2)CN(C)C(=O)C1,inactive: 2.69% [at 57.5 µM]
11,O=C(Cc1c[nH]c2ncc(-c3cccnc3)cc12)Nc1ccccc1,inactive: 9.49% [at 57.5 µM]
12,O=C(c1ccn[nH]1)N1CCN(Cc2cnn3cccnc23)CC(O)C1 (stereo not drawn),inactive: -1.33%
13,CC1(C(=O)NCc2ccncc2)CCCc2cnc(Nc3ccccc3)nc21 (stereo not drawn),inactive: 6.27% [at 57.5 µM]
14,Cc1ccsc1C(=O)N1CCN(c2cc(-c3ccccc3)[nH]n2)CC1,inactive: 0.473%
15,CC[C@H]1CN(C(=O)Nc2cccc(C(F)(F)F)c2)CC[C@H]1CC(=O)NC1CC1,inactive: 0.437% [at 57.5 µM]
16,CCCC1c2nccn2CCCN1C(=O)c1ccoc1C (stereo not drawn),inactive: -0.934%
17,CC(=O)N[C@@H]1C=C[C@@H](c2c(C)nn(-c3ccc(C)c(Cl)c3)c2C)C1,inactive: -2.38% [at 57.5 µM]
18,Cc1c(-c2ccc(F)cc2)[nH]c2ccc(CNC(=O)c3n[nH]c4c3CCCC4)cc12,inactive: 1.02%
19,CC1=C[C@@H](CNC(=O)c2ccc(F)cc2)[C@H](C(C)C)C[C@H]1Cc1nnc(-c2ccncc2)o1,inactive: -0.185%
20,O=C1Cc2c(-c3cccc4ccccc34)n[nH]c2CN1Cc1ccccc1,inactive: 7.99% [at 57.5 µM]
21,CC(=O)N[C@H]1C[C@@H](Cc2cc(CN3CCCCC3)on2)C1(C)C,inactive: -1.91% [at 57.5 µM]
22,c1ccc(CNc2ncc(CN3CCC4(CCNCC4)C3)cn2)cc1,inactive: 63.7%
23,CCNC(=O)N1C[C@@H](F)[C@@H](OCc2nc3ccc(C)cc3[nH]2)C1,inactive: -3.74% [at 57.5 µM]
24,COc1ccc(C2Cn3nnc(C(=O)N4CCN(C(=O)c5cc(F)ccc5Cl)CC4)c3CO2)cc1 (stereo not drawn),inactive: -0.346%
25,COc1ccc(CN2C[C@H]3CN(Cc4ccc5c(c4)OCCO5)CCN3C2=O)cc1,inactive: 1.8% [at 57.5 µM]
26,Cc1cccc(C(=O)N2CC[C@@H](NC(=O)c3cnccn3)[C@H](O)C2)n1,inactive: 0.0934%
